Source: the supplement of paper PMC4466236
Over roughly 33,000 sequences, “E-score (dimensionless, -0.5 to 0.5)” has its median near -0.058; the highest 2% begin near 0.35. Some of the results follow.

These sequences were tested on MvaT (assay: PBM 8-mer E-score (mean of HK and ME arrays) (E-score (dimensionless, -0.5 to 0.5)); higher = stronger relative binding preference; most listed sequences are background and not binding sites).
Method: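 Protein binding microarray: GST-tagged full-length MvaT (P. aeruginosa PAO1) bound to two universal double-stranded 60-mer arrays (ME and HK), each with a constant 25-mer primer and a variable 35-mer region covering all 8-mers. The 8-mer E-score (rank-based, range -0.5 to 0.5, >0.45 = specific binding) is the mean of the two arrays.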

Row | Sequence | PBM 8-mer E-score
1 | CTGGCATA | 0.0662
2 | TCTAGTCA | -0.0532
3 | CACCACGC | -0.299
4 | CAACGAGG | -0.252
5 | CATAAGCC | -0.102
6 | GAGGGTCA | -0.272
7 | GTACATGA | 0.066
8 | TGCTCAAA | 0.096
9 | CCGCGGTA | -0.161
10 | CAACGAGA | -0.0564
11 | GCTCTTAC | -0.0718
12 | ATATCGAG | 0.208
13 | ACGAAGCA | -0.113
14 | GACTGAGC | -0.176
15 | CATCATAC | 0.0279
16 | ATTATCGA | 0.24
17 | GGGGTCGA | -0.147
18 | GCAAATAC | 0.234
19 | AATGCTCT | -0.0695
20 | CCCTCCTA | -0.211
21 | AATGTTTG | 0.212
22 | GATGGAAC | -0.0323
23 | GCCTAGTA | -0.0921
24 | AGAGTTAC | 0.206

Row | Sequence | PBM 8-mer E-score
25 | CATTATAA | 0.389
26 | AAGCATAG | -0.033
27 | ACAGTTGG | -0.055
28 | CGAGCTAA | 0.0133
29 | AGGCCTAT | -0.235
30 | GCTAATGA | -0.138
31 | GATGCAAA | 0.0673
32 | GCTGAGAC | -0.291
33 | AGACGGCT | -0.164
34 | GCCGGGTA | -0.189
35 | ACACTTGC | -0.00708
36 | GTATAACA | 0.3
37 | GGCGTGAC | -0.179
38 | GATGCCGA | -0.114
39 | GCTGGAGA | -0.0991
40 | AACATCCT | -0.00268
41 | AAACCGGT | 0.036
42 | CCGGTTCA | -0.123
43 | CGTCCGGC | -0.16
44 | GAAGAGGC | -0.298
45 | ATCCAACC | -0.00524
46 | AGCGTAGG | -0.192
47 | GCGGTCCA | -0.254
48 | GAGGTCAA | -0.137

Row | Sequence | PBM 8-mer E-score
49 | ATGGTTCA | -0.0265
50 | CGGAAGGA | -0.287
51 | ACTGATAC | 0.105
52 | ATTGACAC | 0.0827
53 | AAATCTGC | 0.075
54 | GCTCGCCC | -0.317
55 | AACCCGTA | 0.0698
56 | CTGAGCGC | -0.179
57 | AAGGAGTC | -0.047
58 | CTAGCATA | -0.00639
59 | GATAACTA | 0.198
60 | AAAATGCC | 0.129
61 | CTTGATCC | -0.181
62 | AAATGGTA | 0.105
63 | GTTCACAA | 0.0178
64 | CCTTAGAA | -0.00735
65 | GCCTCGGA | -0.221
66 | ACACACAT | 0.0835
67 | GACTCTCA | -0.237
68 | CAGTTGAG | 0.00623
69 | GGTTCTTA | -0.0316
70 | AGATCACT | -0.17
71 | GCTGCGAA | -0.0778
72 | CGACACAA | 0.0853

Row | Sequence | PBM 8-mer E-score
73 | ACACAGCC | 0.0184
74 | AGGTCGTC | -0.17
75 | AATCACAT | 0.146
76 | AAGTACTT | 0.41
77 | CAGATAGC | -0.122
78 | GGCCGGGA | -0.246
79 | TACGTCTA | -0.0551
80 | TGTTAACA | 0.33
81 | ACTTTTAG | 0.112
82 | CATCTAGA | 0.0186
83 | ATGGTCGC | -0.162
84 | CATTGGCC | -0.265
85 | GGATATAA | 0.307
86 | CCTACCCA | -0.126
87 | GCTAGGAC | -0.282
88 | TCCCTCAA | -0.062
89 | ACGTGTCG | -0.24
90 | GATTCGGA | -0.0859
91 | CCATGATA | 0.0911
92 | AGAGACCT | -0.199
93 | ATACTCAG | 0.117
94 | ACATAAGC | 0.247
